Data on 89 compounds can be found in publication PMC4336329 (PLoS ONE, 2015).

Structures are written as SMILES. The campaign covered roughly 310,000 compounds. About 14,000 (4.5%) showed an effect of 50% or more. The effect is printed as a negative number. The list shows a part of the results.
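Also: peak tail current of the secondary pulse compared with the same well before compound.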

Chain of human ether-à-go-go-related gene (hERG) potassium channel (Q12809 whole entry, looked up): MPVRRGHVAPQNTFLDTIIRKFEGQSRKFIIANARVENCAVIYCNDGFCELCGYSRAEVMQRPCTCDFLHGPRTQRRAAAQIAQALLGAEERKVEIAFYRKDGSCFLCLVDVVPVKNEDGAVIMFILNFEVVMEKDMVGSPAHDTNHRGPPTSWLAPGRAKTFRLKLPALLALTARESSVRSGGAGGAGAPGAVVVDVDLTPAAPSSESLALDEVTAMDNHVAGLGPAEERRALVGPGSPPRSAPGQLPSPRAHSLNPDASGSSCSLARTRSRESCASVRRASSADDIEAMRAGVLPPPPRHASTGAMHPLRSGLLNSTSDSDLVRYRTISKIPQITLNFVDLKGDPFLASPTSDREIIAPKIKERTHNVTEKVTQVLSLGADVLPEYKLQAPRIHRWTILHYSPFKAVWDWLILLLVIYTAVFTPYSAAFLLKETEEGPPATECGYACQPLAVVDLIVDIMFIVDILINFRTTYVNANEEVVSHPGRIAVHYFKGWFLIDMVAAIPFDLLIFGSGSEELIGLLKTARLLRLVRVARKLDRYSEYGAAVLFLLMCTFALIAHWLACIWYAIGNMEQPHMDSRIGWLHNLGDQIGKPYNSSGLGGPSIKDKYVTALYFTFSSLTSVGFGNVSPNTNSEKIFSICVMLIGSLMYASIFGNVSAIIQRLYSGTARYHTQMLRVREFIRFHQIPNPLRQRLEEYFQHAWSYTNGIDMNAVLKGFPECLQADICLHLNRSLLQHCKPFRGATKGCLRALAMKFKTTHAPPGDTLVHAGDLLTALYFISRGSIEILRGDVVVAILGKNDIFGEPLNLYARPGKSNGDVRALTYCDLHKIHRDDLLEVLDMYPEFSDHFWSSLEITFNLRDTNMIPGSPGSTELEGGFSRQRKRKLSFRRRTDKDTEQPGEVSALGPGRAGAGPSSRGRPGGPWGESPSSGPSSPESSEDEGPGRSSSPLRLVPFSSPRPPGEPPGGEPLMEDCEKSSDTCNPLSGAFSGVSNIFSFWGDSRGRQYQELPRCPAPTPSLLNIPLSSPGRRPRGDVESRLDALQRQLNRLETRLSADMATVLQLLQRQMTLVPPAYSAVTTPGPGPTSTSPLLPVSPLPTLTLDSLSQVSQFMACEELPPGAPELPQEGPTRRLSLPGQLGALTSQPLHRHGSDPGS

This assay addresses human ether-à-go-go-related gene (hERG) potassium channel (human, UniProt Q12809). Put plainly: primary screen, population patch clamp on CHO cells stably expressing hERG.
As to `Cc1c(NC(=O)C(C)OC(=O)c2ccc(Br)o2)c(=O)n(-c2ccccc2)n1C` (centres unmarked), the “hERG current change (%, negative = inhibition) at 10uM” value worked out at 12.3%.

As for `Cc1cc(NS(=O)(=O)c2ccc(NC(=O)Nc3ccc4c(c3)OCO4)cc2)no1`, the “hERG current change (%, negative = inhibition) at 10uM” value stood at 7.65%.

For `CCOc1ccccc1CNS(=O)(=O)c1csc(C(N)=O)c1`, the “hERG current change (%, negative = inhibition) at 10uM” value is 5.08%. Regarding `Cc1ccc(C(=O)N/N=C2\CC3CC=CC23)c(C)c1` (centres unmarked), the “hERG current change (%, negative = inhibition) at 10uM” value is listed as -5.04%.

As to `COc1ccccc1OC(=O)CCc1nc2ccccc2s1`, the “hERG current change (%, negative = inhibition) at 10uM” value is reported as 15.9%.

Turning to `COc1cccc(CNC(=O)CCC2CCCN(C3CCOCC3)C2)c1` (centres unmarked), the “hERG current change (%, negative = inhibition) at 10uM” value is recorded as -0.768%. Next, `CCOC(=O)C1CCCN(c2nc3ccccc3nc2NS(=O)(=O)c2ccc(C)cc2)C1` (centres unmarked): -44.8%; `CC(C)(C)S(=O)(=O)/C(C#N)=N/Nc1ccc(S(C)(=O)=O)cc1`: 23.4%; `CCc1ccc(OCC(=O)N(C)CCC#N)c(Br)c1`: -4.95%. Next, `O=C(O)CCCCCNC(=O)C(=O)C1C(=O)Nc2ccccc21` (centres unmarked): 15%; `CCOc1ccc(CCNC(=O)COC(=O)Cc2ccc(F)cc2)cc1OCC`: -26.6%. Next, `Cc1cccc(OCCc2c(C)[nH]c(=S)[nH]c2=O)c1`: 12.8%; `COc1ccc(/C=C2\SC(=S)N(NS(=O)(=O)c3ccc(C)cc3)C2=O)c(OC)c1`: -24.6%. `Cc1ccc(C)c(-c2[nH]ncc2CN2CCCC(CO)(Cc3ccccc3C)C2)c1` (centres unmarked): the “hERG current change (%, negative = inhibition) at 10uM” value was -47.8%. For `Cc1ccc(C(=O)NNC(=O)CSc2nnc(-c3ccncc3)n2C)cc1` the value was 24.9%; for `NC(=O)CSc1c[nH]c2ccccc12`, -6.82%. For `CCN(CC)S(=O)(=O)c1ccc(/C=C/C(=O)OCC(=O)Nc2cccnc2Cl)cc1` the value was -34.1%; for `CCOC(=O)C(=O)Nc1ccccc1C(=O)OC`, 10.7%. As for `CC(C)C(=O)N1CCN(c2ccccc2NC(=S)NC(=O)Cc2ccccc2)CC1`, the “hERG current change (%, negative = inhibition) at 10uM” value is given as -4.92%. Next, `Cc1sc2nc(SCC(=O)N3CCCCC3)[nH]c(=O)c2c1C`: 1.97%; `NC(=O)CN1CCN(C(=O)Nc2ccccc2)CC1`: -6.24%; `Cc1ccccc1-n1nc(SCC(=O)O)sc1=S`: 23.5%.

In the case of `CCN(CC(=O)Nc1c(F)cccc1F)C(=O)Cc1n[nH]c(=O)c2ccccc12`, the “hERG current change (%, negative = inhibition) at 10uM” value is 16.1%. Next, `CC(=O)Nc1ccc(C#Cc2ccc(NC(C)=O)cc2)cc1`: 8.37%; `CC(=O)N1CC(=O)Nc2ccc(C)cc2C1c1ccccc1` (centres unmarked): 14.7%; `N#Cc1c(N)nc2c(c1-c1ccncc1)CCCCCC2`: -1.86%. Next, `Cc1nc2ccccn2c(=O)c1NC(=O)c1cccc2ccccc12`: -6.3%; `CCN1C(=O)C(C)S/C1=N\S(=O)(=O)c1ccc(F)cc1` (centres unmarked): -5.64%; `Cc1ccc2c(c1)N(CC(=O)NCCCN1CCCC1)C(=O)CO2`: 14.5%. On to `CC1(C)C(=O)OC(c2c(F)c(F)c(F)c(F)c2F)C2(CCCCC2)C1=O` (centres unmarked), for which the “hERG current change (%, negative = inhibition) at 10uM” value turned out to be 11.2%. `CCc1nc(SCC(=O)Nc2cccc3ccccc23)[nH]c(=O)c1C`: the “hERG current change (%, negative = inhibition) at 10uM” value amounted to 8.16%. Next, `CC1CCC(NC(=O)CCS(=O)(=O)c2ccc3c(c2)NC(=O)CS3)CC1` (centres unmarked): -5.69%; `CCOC(=O)c1cnc(-n2nc(C)cc2C)nc1NC1CCCCC1`: -9.72%. On to `COc1ccccc1Nc1ncnc2c1c(C)c(C)n2CCO`, for which the “hERG current change (%, negative = inhibition) at 10uM” value was found to be 12.3%. For `COc1cc(NC(=O)c2cccs2)c(C(=O)OCC(=O)NC(C)c2ccccc2)cc1OC` (centres unmarked) the value was 6.62%. For `CN(CCCNC(=O)COc1cc(=O)n(C)c2ccccc12)Cc1ccccc1` the value was -18.1%; for `Cc1cc(C(=O)CSc2nc(N)cc(=O)[nH]2)c(C)n1CCc1ccc(Cl)cc1`, 21.4%. Next, `Cc1ccc2c(c1)N(C(=O)CCC(=O)N1CCN(c3ccccn3)CC1)CC(C)O2` (centres unmarked): -46.1%. In the case of `CCCN(C(=O)c1cc(S(=O)(=O)N2CCCCC2)ccc1Cl)C1CCS(=O)(=O)C1` (centres unmarked), the “hERG current change (%, negative = inhibition) at 10uM” value is on record as -8.22%. For `CCC(CO)(C(=O)OC1CC2CCC(C1)N2C)c1ccccc1.Cl` (centres unmarked) the value was 12.3%; for `ClCC1=Nc2ccccc2Cc2ccccc21`, 9.65%; for `COc1ccc(N2CCN(C(=O)COC(=O)CNC(=O)c3ccc(Cl)cc3Cl)CC2)cc1`, -44.7%. Next, `COc1ccccc1N1CCN(C2CCCCC2NS(=O)(=O)c2ccccc2)CC1` (centres unmarked): 4.09%; `COc1cccc(C2CC(c3ccccc3)Nc3ncnn32)c1` (centres unmarked): -9.55%; `CCCOc1cccc(C2C(C(=O)c3ccc(C)o3)=C(O)C(=O)N2CCN2CCOCC2)c1` (centres unmarked): 10.5%. Regarding `Cc1ccc(C(C[N+](=O)[O-])n2nc(C)cc2C)cc1` (centres unmarked), the “hERG current change (%, negative = inhibition) at 10uM” value is listed as 11.8%. For `O=[N+]([O-])c1cc(C=Nc2cccc3c(O)cccc23)ccc1Cl` the value was 29.2%. Next, `Cc1ccc(C(=O)n2nc(-c3ccccc3)nc2NCc2ccco2)cc1`: 16%. For `COc1ccc(NC(=O)CCC(=O)NCc2ccco2)c([N+](=O)[O-])c1` the value was -0.71%; for `Clc1ccc(-c2ccc(C=Nc3ccc(N4CCOCC4)cc3)o2)cc1`, -6.9%; for `O=C(Nc1nccs1)C1CC=CCC1C(=O)OCC(F)(F)C(F)F` (centres unmarked), 20.6%. As for `O=C(CC1NCCN(Cc2ccccc2)C1=O)Nc1ccccc1` (centres unmarked), the “hERG current change (%, negative = inhibition) at 10uM” value was -13.8%. For `CCCNC(=O)C1(O)c2cc(Br)ccc2NC(=O)N1c1ccc(Cl)cc1` (centres unmarked) the value was 11%. On to `N#C/C(C(=O)Oc1ccccc1)=C1\C=CC=CN1`, for which the “hERG current change (%, negative = inhibition) at 10uM” value was found to be 3.95%.

For `CCOc1cccc2sc(N(CCN(C)C)C(=O)c3ccc(Br)s3)nc12.Cl`, the “hERG current change (%, negative = inhibition) at 10uM” value is given as -30.3%. For `C=CCN1C(=O)NC(=O)/C(=C/c2c(CCN(C)C(=O)c3ccccc3)cc3c(c2OC)OCO3)C1=O` the value was 6.74%. For `CCOc1ccc(S(=O)(=O)N2CCC(C(=O)N3CCN(c4ccccc4)CC3)CC2)cc1` the value was -18%; for `Cn1c(=O)c(=O)n(C)c2cc(S(=O)(=O)CCC(=O)Nc3ccc(C(F)(F)F)cc3)ccc21`, 17.9%; for `CN(C)S(=O)(=O)c1cccc(NC(=O)COC(=O)c2ccc(Br)o2)c1`, -27.9%. Next, `c1ccc2c(c1)NC(c1ccncc1)n1c-2nc2ccccc21` (centres unmarked): -66.2%; `CC(=O)N1[C@H](C)C=C[C@]1(Cc1ccccc1)C(=O)NCc1cc(F)cc(C(F)(F)F)c1`: -8.05%. As for `O=Nc1c(O)[nH]c2ccc(Cl)cc12`, the “hERG current change (%, negative = inhibition) at 10uM” value is 1.11%. As to `CCc1ccc(CN2C(=O)CCC2(C)C(=O)NC2CCCC2)cc1` (centres unmarked), the “hERG current change (%, negative = inhibition) at 10uM” value worked out at 3.34%. Next, `COc1cccc(CNC(=O)Cn2c(=O)oc3cc(S(=O)(=O)N4CCCCC4)ccc32)c1`: 0.515%. As to `COc1ccc(/C(C)=N/NS(=O)(=O)c2ccccc2)c(OC)c1`, the “hERG current change (%, negative = inhibition) at 10uM” value was -1.14%. For `C=CCN1C(=O)c2ccc(C(=O)N(CC(C)C)c3c(N)n(CCCC)c(=O)[nH]c3=O)cc2C1=O` the value was 16.3%; for `COc1ccccc1C(=O)Nc1cccc(NC(=O)c2ccccc2C)c1`, 3.01%; for `COc1ccc(Br)cc1CN1C(=O)NC2(CCCCCC2)C1=O`, 10.4%. Next, `CC1CCC(NCC(=O)Nc2cccc(S(N)(=O)=O)c2)CC1.O=C(O)C(=O)O` (centres unmarked): 14.3%; `Cc1cc(/C=C2\SC(=S)NC2=O)c(C)n1C`: 10.8%. For `Cc1ccc(-c2c(C(=O)N/N=C/c3c[nH]c4ccccc34)nnn2-c2nonc2N)cc1` the value was 23.7%; for `Cc1nnc(Nc2ccc(C(=O)O)cc2)[nH]c1=O`, 17.8%; for `COc1ccc(CN2CCN(Cc3c[nH]c4ccccc34)CC2)cc1.O=C(O)C(=O)O`, -67.5%. Regarding `Cc1cccc(-c2noc(CNC(=O)c3ccco3)n2)c1`, the “hERG current change (%, negative = inhibition) at 10uM” value is given as -4.07%. For `Cc1nnc(NC(=O)c2c(F)cccc2F)s1` the value was 21.6%; for `Cc1cccc(NC(=S)NNC(=O)c2nn(C)cc2Cl)c1`, 3.97%. `O=C(CN(Cc1cccs1)C(=O)CCC(=O)Nc1nccs1)NCc1ccccc1`: the “hERG current change (%, negative = inhibition) at 10uM” value was -31%. For `CSc1ncc2c(n1)-c1cc(C)ccc1SC2` the value was 16.6%.

In the case of `CCOc1ccc(-c2cn3ccccc3n2)cc1[N+](=O)[O-]`, the “hERG current change (%, negative = inhibition) at 10uM” value was -17.7%. In the case of `CCCN(CCC)S(=O)(=O)c1ccc(C(=O)NCc2ccc3c(c2)OCO3)cc1`, the “hERG current change (%, negative = inhibition) at 10uM” value is on record as 7.42%.

Turning to `COC(=O)c1sc2nc3c(cc2c1N)C(=O)CC(C)(C)C3`, the “hERG current change (%, negative = inhibition) at 10uM” value is listed as 19.8%. Next, `O=C(CSc1ccc(-c2cccnc2)nn1)c1ccc([N+](=O)[O-])cc1`: -42.5%; `CC1=NN(c2ccccc2)C(=O)/C1=C\N1CC(C)OC(C)C1` (centres unmarked): -9.29%.

With `Cc1ccc(NC(=O)c2sc(C)nc2C)c(C)c1`, the “hERG current change (%, negative = inhibition) at 10uM” value turned out to be 1.97%.

As to `Cc1ccc(C)c(C(=O)COc2ncnc3ccccc23)c1`, the “hERG current change (%, negative = inhibition) at 10uM” value worked out at 3.24%. Next, `CCNC(=O)C(CCSC)NS(=O)(=O)c1ccc(C)cc1` (centres unmarked): -4.17%.

As to `COc1cccc(-c2cc3nc4c(c(NCC(C)(C)CN(C)C)n3n2)CCCC4)c1`, the “hERG current change (%, negative = inhibition) at 10uM” value was -40.8%. For `COc1cc(CN2CCN(CC3CC3)CC2CCO)cc(OC)c1` (centres unmarked) the value was 2.79%; for `COc1ccc(-c2cc(C(F)F)n3ncc(C(=O)Nc4cc(C)on4)c3n2)cc1`, 8.08%.
